Reference: the RNAGym collection of RNA variant scans (doi:10.1073/pnas.2313332121)
Variants at the floor of the assay are shown more often than the library holds them.

B1: TPR 5TU (parent)
chain: GGAUCUUCUCGAUCUAACAAAAAAGACAAAUCUGCCACAAAGCUUGAGAGCAUCUUCGGAUGCAGAGGCGGCAGCCUUCGGUGGCGCGAUAGCGCCAACGUUCUCAACUAUGACACGCAAAACGCGUGCUCCGUUGAAUGGAGUUUAUCAUG

Variants of: B1
Test: polymerase ribozyme fitness, log enrichment relative to wild type (log ratio); higher = more active; in vitro selection for triplet polymerase activity
Outline: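 Mutant libraries were PCR-built and transcribed for each subunit of a heterodimeric triplet polymerase ribozyme and selected for one round in triplicate at −7 °C, frozen, before gel excision of extended constructs and streptavidin-bead capture. Input and output libraries were Illumina-sequenced, keeping genotypes with ≥10 input reads and ≥1 read per output. Fitness is a logarithmic ratio of genotype to wild-type enrichment, in base 2, using inverse-variance-weighted replicate averages.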

| Variant | polymerase ribozyme fitness (log ratio) |
| --- | --- |
| A21G C43G G81U A91C C95G A110U G136C U146C | ≤ -4.2 |
| A21C U77A G84A C85U | ≤ -4.2 |
| A21U C87U G112U | ≤ -4.2 |
| A21U C75A A122U | -3.97 |
| A21U C32A G70A U82C C87U C96A A97G G152U | ≤ -4.2 |
| A21C U56A C93A A121C U146G C149U | -2.29 |
| A22C U53A G84C G112A C129A U134G A147C | ≤ -4.2 |
| A21U C32A G58C | ≤ -4.2 |
| A21U C87U C96U C131G | ≤ -4.2 |
| A22C A26G A30U U45G G74C C103G G140U | ≤ -4.2 |
| A22C C36U G58A A60C G74U A113U U146C | ≤ -4.2 |
| A21U U53G U56A G68C C69U | ≤ -4.2 |
| A21G G83C U90C U146A A150C | ≤ -4.2 |
| A21G C54A G83U C87A C96U A122C | ≤ -4.2 |
| A21U U61A C93A U102G A121C | ≤ -4.2 |
| A21G A37C G46A G70U G74A G84A C87U C93U C114G | ≤ -4.2 |
| A21G A22G A26U C36U C87U | ≤ -4.2 |
| A22C C36A C75A C76G G83C U101A G136C G140C | ≤ -4.2 |
| A21U A60C C87A A98G G100C | ≤ -4.2 |
| A22C G84A C99A G152U | ≤ -4.2 |
| A21U A24U A52G C54A U55C G58C G88U C93A C103A | ≤ -4.2 |

| Variant | polymerase ribozyme fitness (log ratio) |
| --- | --- |
| A21U A28C U31G A47G C85U C116G C129A G133A | ≤ -4.2 |
| A21G A22U A73U C93G C108U | ≤ -4.2 |
| A22G C38U C95U A107C G128A | ≤ -4.2 |
| A21U C87A A107C | ≤ -4.2 |
| A22C U31A G50U C116U A137U | ≤ -4.2 |
| A22C U44A A47C | ≤ -4.2 |
| A21U C85U | -0.171 |
| A22C C27U U44A G74A G86A G88A C125U A137U | ≤ -4.2 |
| A21G G50C U56A C76A G92U | ≤ -4.2 |
| A22C G34C G48A G86C A121G | ≤ -4.2 |
| A21G U45A G48C C51G C57U A110U C116U U144C | ≤ -4.2 |
| A21U A49G A98G | -0.555 |
| A21U G141A | 1.36 |
| A21U C99G G100U G126A G141U A142G A150C | ≤ -4.2 |
| A21G G84C A113U | -4.09 |
| A22G A28C A29G G34C U55A C76A C79G C87A C103G G124C U144C | ≤ -4.2 |
| A21G C85A | -1.12 |
| A21U A47C G48C G84U | ≤ -4.2 |
| A21U A142U | -0.552 |
| A21G C32G G34C U56A G59C U82G G88U C103G G140U | ≤ -4.2 |
| A21C C114G C118U A120G C149G | ≤ -4.2 |

| Variant | polymerase ribozyme fitness (log ratio) |
| --- | --- |
| A22G A24G G92U | ≤ -4.2 |
| A21C U90A G94C | ≤ -4.2 |
| A21G U31G A52U G65A G67C C87A C99A G140U G143U | ≤ -4.2 |
| A21U U31A C85A | -0.251 |
| A21G G42A A49C A66U U82C C87U U135G U145A U148A | ≤ -4.2 |
| A21G C36A C118U U135C | ≤ -4.2 |
| A21G U55G U56G U61G U77A G94U C99G | ≤ -4.2 |
| A21G G50U U56C G92A C131A | ≤ -4.2 |
| A22C G65C C85U U101A | ≤ -4.2 |
| A21U A24U A28G G50C C54U C57A G94C C96U | ≤ -4.2 |
| A21G A29U G81U C87U A107U U146G | ≤ -4.2 |
| A22C C57U A60U C69G | -1.7 |
| A22G A40C A52C A73C G83C C114A G136C G140A U148G | ≤ -4.2 |
| A21U C32G U44A C57G G94A G100C | ≤ -4.2 |
| A22G A41C G48U G58A G62C C76U C96G C114A | ≤ -4.2 |
| A21U G25U G46A A60G C85A A98U | ≤ -4.2 |
| A21G A52C C75G G92C G94C A106C A147C | ≤ -4.2 |
| A22G A28U U53A C85G A91C C96U | ≤ -4.2 |
| A21U A30G | -3.62 |
| A22G C51A U55A C87G U104G | ≤ -4.2 |
| A22G A23C C32G C72U | ≤ -4.2 |

| Variant | polymerase ribozyme fitness (log ratio) |
| --- | --- |
| A21G A28U C43A G48C U56G C79G G88U C131G G133A | ≤ -4.2 |
| A21U G62A G83U A113C G140U U146A | ≤ -4.2 |
| A21U A47C C76G U77G | ≤ -4.2 |
| A22C A28U U45A U61G C87U C118U | ≤ -4.2 |
| A21C C116U A119U G124A G128U | ≤ -4.2 |
| A21G A52U C85G A119G C125U A137U | ≤ -4.2 |
| A21G A29G G83C A98U | ≤ -4.2 |
| A22C C125U | -0.469 |
| A22C A39C C96U U139A | ≤ -4.2 |
| A21U A29C G92A C99U G117U U130G | -3.76 |
| A21G C116G | 1.2 |
| A22C A40U C54U G94A | -0.982 |
| A22G A28U A29G A37C G48A A64C C85G C99U C125A A137G | ≤ -4.2 |
| A22C A28C A40G C43U U56G C85U | ≤ -4.2 |
| A22C C43U A89U A115C G124C | ≤ -4.2 |
| A22C C35U A40U C54U U148C | ≤ -4.2 |
| A22G C38A U55A G58C C72U C93A U102G G112C C131G | ≤ -4.2 |
| A22C G50A G100A C131A U134C | ≤ -4.2 |
| A22C A52U U82C G86U A97G | -3.83 |
| A21U C54U A64C G65U G81A | ≤ -4.2 |
